Here are results for 195 variants from a collection of fitness landscapes (doi:10.1126/science.1257360).

B1: PhoQ; a variant is named by its letters at X, in order, P23837 (parent)
chain: MKKLLRLFFPLSLRVRFLLATAAVVLVLSLAYGMVALIGYSVSFDKTTFRLLRGESNLFYTLAKWENNKLHVELPENIDKQSPTMTLIYDENGQLLWAQRDVPWLMKMIQPDWLKSNGFHEIEADVNDTSLLLSGDHSIQQQLQEVREDDDDAEMTHSVAVNVYPATSRMPKLTIVVVDTIPVELKSSYMVWSWFIYVLSANLLLVIPLLWVAAWWSLRPIEALAKEVRELEEHNRELLNPATTRELTSLVRNLNRLLKSERERYDKYRTTLTDLTHSLKTPLXXLQXXLRSLRSEKMSVSDAEPVMLEQISRISQQIGYYLHRASMRGGTLLSRELHPVAPLLDNLTSALNKVYQRKGVNISLDISPEISFVGEQNDFVEVMGNVLDNACKYCLEFVEISARQTDEHLYIVVEDDGPGIPLSKREVIFDRGQRVDTLRPGQGVGLAVAREITEQYEGKIVAGESMLGGARMEVIFGRQHSAPKDE

Some of the results follow.

Variants of B1 are the subject of the assay. Briefly: enrichment ratio after two sorts for PhoP signalling (ratio (wild type AVST 3.29)); higher = more functional. The note with it: with PhoP (E. coli).
For AHQY, the enrichment ratio was no more than 0.25. As to HGGR, the enrichment ratio is no more than 0.25. On to ESIC, for which the enrichment ratio is no more than 0.25. Turning to RWIA, the enrichment ratio was no more than 0.25. Take PQLC: the enrichment ratio was no more than 0.25. In the case of IRDR, the enrichment ratio was no more than 0.25. For the variant HILC, the enrichment ratio is no more than 0.25.

Regarding AIFM, the enrichment ratio was no more than 0.25. In the case of NPIC it was no more than 0.25; in that of DSFA, no more than 0.25; in that of YPWS, no more than 0.25. Next, VHAK: no more than 0.25; PARN: no more than 0.25; TMGS: 7.47. Next, SKCG: 3.69; ADVQ: 10.9.

Regarding LWAK, the enrichment ratio was no more than 0.25.

Consider ENYG, for which the enrichment ratio was no more than 0.25.

Regarding TPDM, the enrichment ratio is no more than 0.25. PHDS: the enrichment ratio was no more than 0.25.

For FMKE, the enrichment ratio was no more than 0.25.

With SRPS, the enrichment ratio is no more than 0.25. FGPL: the enrichment ratio was no more than 0.25. With MNKS, the enrichment ratio was no more than 0.25.

On to TCSA, for which the enrichment ratio was 18.5. RIPI: the enrichment ratio was no more than 0.25. As to VWHC, the enrichment ratio was no more than 0.25. Turning to EGVQ, the enrichment ratio was no more than 0.25. Take FVCC: the enrichment ratio was no more than 0.25. On to LEKD, for which the enrichment ratio was no more than 0.25. FPAC: the enrichment ratio is no more than 0.25. Next, VNPF: no more than 0.25. NDLI: the enrichment ratio is no more than 0.25. In the case of LMPD it was no more than 0.25; in that of NSML, 4.86. Regarding VSAY, the enrichment ratio was no more than 0.25. Regarding YRLL, the enrichment ratio is no more than 0.25. Consider GIEP, for which the enrichment ratio was no more than 0.25.

For DCQS, the enrichment ratio was no more than 0.25.

As to GLVE, the enrichment ratio was no more than 0.25. For PTVQ, the enrichment ratio was no more than 0.25. As to ESKR, the enrichment ratio is no more than 0.25. Regarding MTAG, the enrichment ratio came to 4.05. As to RQLA, the enrichment ratio is no more than 0.25.

Consider TYKI, for which the enrichment ratio is no more than 0.25. In the case of RLAM, the enrichment ratio was no more than 0.25.

For FSTQ, the enrichment ratio is no more than 0.25. As for AGDH, the enrichment ratio was no more than 0.25.

Consider GQLF, for which the enrichment ratio was determined as 4.98. As for DKCI, the enrichment ratio was no more than 0.25. With PRQH, the enrichment ratio was no more than 0.25. In the case of SMLN it was 4.75; in that of AYEL, no more than 0.25. Next, NLHS: no more than 0.25; NHFW: no more than 0.25; PEKF: no more than 0.25.

SNSI: the enrichment ratio is 12.4. In the case of YDCN it was no more than 0.25. Turning to SLYD, the enrichment ratio is no more than 0.25.

As for NYKT, the enrichment ratio was no more than 0.25.

For KEHM, the enrichment ratio was no more than 0.25. Take YPAA: the enrichment ratio was no more than 0.25. On to RPES, for which the enrichment ratio was no more than 0.25. As to CSSR, the enrichment ratio is no more than 0.25. In the case of NSPR, the enrichment ratio is no more than 0.25. As to WWAS, the enrichment ratio is no more than 0.25. Consider YGQY, for which the enrichment ratio was no more than 0.25. For the variant KIHF, the enrichment ratio was no more than 0.25.

As to KEGN, the enrichment ratio was no more than 0.25. Regarding HREV, the enrichment ratio was no more than 0.25. As for ELCI, the enrichment ratio was no more than 0.25. Next, ADVP: no more than 0.25.

As to KYCN, the enrichment ratio was no more than 0.25. Next, SVSP: no more than 0.25; DITN: no more than 0.25.

Turning to WERG, the enrichment ratio is no more than 0.25. QWFR: the enrichment ratio was no more than 0.25. With LLHT, the enrichment ratio was no more than 0.25. On to LYAD, for which the enrichment ratio is no more than 0.25. In the case of HPWY it was no more than 0.25. Take LNVP: the enrichment ratio is no more than 0.25.

For the variant LDNC, the enrichment ratio is no more than 0.25. Take NGYD: the enrichment ratio is no more than 0.25.

As for GGCT, the enrichment ratio came to 15.6. QFVM: the enrichment ratio was no more than 0.25. As to KNTC, the enrichment ratio is no more than 0.25.

As for QELR, the enrichment ratio was no more than 0.25. As for FSED, the enrichment ratio was no more than 0.25. For the variant DKMF, the enrichment ratio was no more than 0.25. Take YQEL: the enrichment ratio is no more than 0.25. Regarding TEAV, the enrichment ratio worked out at 7.67. Regarding VLGD, the enrichment ratio is no more than 0.25. With MHIS, the enrichment ratio was no more than 0.25. Next, MAYF: 16.5; RGYL: no more than 0.25. As for MTVI, the enrichment ratio stood at 1.36. Turning to DKRR, the enrichment ratio was no more than 0.25.

For the variant AICK, the enrichment ratio was 24.4. In the case of RTYA, the enrichment ratio was no more than 0.25.

For the variant KLYA, the enrichment ratio is no more than 0.25. Consider PATW, for which the enrichment ratio is no more than 0.25. Take VTFR: the enrichment ratio was no more than 0.25. Regarding EPRY, the enrichment ratio was no more than 0.25. Next, TANI: 0.96; YEFE: no more than 0.25. In the case of MWCF, the enrichment ratio was no more than 0.25. Take PKYI: the enrichment ratio was no more than 0.25. For FYDD, the enrichment ratio is no more than 0.25.

For AHTK, the enrichment ratio is no more than 0.25. Consider IEAW, for which the enrichment ratio worked out at 2.56. Take KQSG: the enrichment ratio is no more than 0.25. In the case of AYVS, the enrichment ratio is no more than 0.25.

On to DCYP, for which the enrichment ratio was no more than 0.25. For the variant FQQA, the enrichment ratio came out at 3.46. On to FNKH, for which the enrichment ratio was no more than 0.25. With QFGE, the enrichment ratio is no more than 0.25. Next, IMIY: no more than 0.25; DMQP: 1.17; SGWA: no more than 0.25.

As for LDMA, the enrichment ratio was no more than 0.25. For the variant WSAA, the enrichment ratio was no more than 0.25.

With FWHV, the enrichment ratio was no more than 0.25. Take PQIS: the enrichment ratio is no more than 0.25. In the case of IHKL it was no more than 0.25; in that of YDTF, no more than 0.25; in that of TPSG, no more than 0.25. In the case of RGYI it was no more than 0.25; in that of IHNM, no more than 0.25. With WNPA, the enrichment ratio was no more than 0.25. GMVL: the enrichment ratio turned out to be 2.37.

As for KMCY, the enrichment ratio was no more than 0.25. Regarding KEDT, the enrichment ratio was no more than 0.25. Regarding MQHH, the enrichment ratio was no more than 0.25. In the case of PHTK it was no more than 0.25; in that of WEFH, no more than 0.25; in that of MPYF, no more than 0.25. With WGFM, the enrichment ratio was no more than 0.25. On to AMFE, for which the enrichment ratio was no more than 0.25.

Consider TDII, for which the enrichment ratio turned out to be 1.96. In the case of HHIM, the enrichment ratio is no more than 0.25. Next, IGVK: no more than 0.25; FIPD: no more than 0.25. Take NHQN: the enrichment ratio is no more than 0.25. With WEHK, the enrichment ratio is no more than 0.25.

QINR: the enrichment ratio was no more than 0.25. On to QLET, for which the enrichment ratio is no more than 0.25. Take NTWR: the enrichment ratio is no more than 0.25. As to IWSQ, the enrichment ratio is no more than 0.25. In the case of DMNS it was no more than 0.25; in that of FVPW, no more than 0.25; in that of RHFV, no more than 0.25. DLKF: the enrichment ratio was no more than 0.25. Consider DVIY, for which the enrichment ratio is no more than 0.25.

As for NWDG, the enrichment ratio is no more than 0.25. Consider LAEF, for which the enrichment ratio is no more than 0.25.

Regarding YCWL, the enrichment ratio was no more than 0.25.

As to SVSE, the enrichment ratio turned out to be 2.45. As for SPSV, the enrichment ratio is no more than 0.25. Next, WAML: 0.83; YLAL: no more than 0.25; IQKE: no more than 0.25. As to VDNM, the enrichment ratio was no more than 0.25. With DTIQ, the enrichment ratio was no more than 0.25. On to GHMN, for which the enrichment ratio is no more than 0.25.

As to TANL, the enrichment ratio amounted to 10.

With TMTQ, the enrichment ratio is 14.3. As for NWLV, the enrichment ratio was no more than 0.25. With VWQN, the enrichment ratio was no more than 0.25.

With GVAL, the enrichment ratio turned out to be 1.02.

Consider DLNW, for which the enrichment ratio was no more than 0.25. As for LNSD, the enrichment ratio was no more than 0.25. For GHYM, the enrichment ratio was no more than 0.25.

Take HARV: the enrichment ratio is no more than 0.25. In the case of QKDC it was no more than 0.25; in that of RDCA, no more than 0.25. On to RMHG, for which the enrichment ratio is no more than 0.25.

Regarding GEHS, the enrichment ratio is no more than 0.25. Turning to HQDD, the enrichment ratio was no more than 0.25. On to RSVF, for which the enrichment ratio was no more than 0.25. For the variant VIVA, the enrichment ratio is no more than 0.25.

Turning to ANDT, the enrichment ratio was no more than 0.25. Turning to GYWY, the enrichment ratio was no more than 0.25.

Consider GNTV, for which the enrichment ratio was no more than 0.25. Regarding TEGY, the enrichment ratio was 1.36. For GPAP, the enrichment ratio was no more than 0.25. Take NFEW: the enrichment ratio is no more than 0.25.

Turning to LEVW, the enrichment ratio was no more than 0.25. In the case of ACTR, the enrichment ratio came to 10.6. Turning to CELL, the enrichment ratio is no more than 0.25. Regarding KTFE, the enrichment ratio is no more than 0.25. In the case of ERPT it was no more than 0.25; in that of EHDV, no more than 0.25. VPYG: the enrichment ratio is no more than 0.25.

On to WGRL, for which the enrichment ratio was no more than 0.25. In the case of SDRV it was no more than 0.25.
